Measurements taken from PubChem BioAssay (Tox21).
This list was built around the results that the source calls inconclusive (neither active nor inactive); the mix of calls is not that of the screen. Where the call is inconclusive, the potency comes from a doubtful curve fit. Calls of active or inactive are those of the source. The call rests on the fitted dose curve; in most records, active means well fitted activation curve with a large enough effect in the repeat runs; inconclusive means weak or mixed curves; inactive means flat fitted curve, though single readings scatter.

Assay: A CellTox Green Cytotoxicity Assay to monitor cytotoxicity in HepG2 cells - 32 hour (AID 1224883); further: nearly all actives have a fitted effect of over 50% in size
Details: CellTox Green fluorescence; series mostly up to 76.8 µM
Procedure, shortened: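 First, HepG2 cells (600/well) mixed with reagent were plated; second, after 5 h at 37 C they received compounds via pintool; third, fluorescence was measured at 0 h through 40 h at 8 h intervals.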
Potency means the concentration at half of the fitted maximal effect; tags describe the fitted curve by direction and shape.

SMILES	Potency
Cc1cc2c(OCC(CNC(C)(C)C)OC(=O)c3ccccc3)cccc2[nH]1 (centres undefined)	inconclusive: 26.8 µM [activator, single point]
c1ccc(CCCc2ccncc2)cc1	inconclusive: 24.5 µM [activator, partial curve]
C1CN(SSN2CCOCC2)CCO1	inconclusive: 61.6 µM [activator, single point]
CCCCN(CCCC)CCC(O)c1cc2c(Cl)cc(Cl)cc2c2cc(C(F)(F)F)ccc12 (centres undefined)	inconclusive: 26.8 µM [activator, single point]
O=[N+]([O-])c1cc(C2CCCCC2)c(O)c([N+](=O)[O-])c1	inconclusive: 54.8 µM [activator, single point]
CN(C/C=C/c1ccccc1)Cc1cccc2ccccc12	active: 23.9 µM
COCCOc1cc2cc(C(=O)NC3CCN(C(C)C)CC3)n(CC(=O)Nc3ccc(Cl)cn3)c2cn1	inactive
COc1ccccc1N1CCN(CC(O)COc2cccc3ccccc23)CC1 (centres undefined)	active: 26.8 µM
C/C=C(/C(=C/C)c1ccc(O)cc1)c1ccc(O)cc1	active: 16.9 µM
C/C=C/C=C/COC(=O)C(C)C	active: 38.9 µM
CCOC(=O)CC	inactive
CC(=O)CCC(=O)O	inconclusive: 61.6 µM [activator, single point]
c1ccc(C(O[C@@H]2CCCN(CCc3ccc4c(c3)OCO4)C2)c2ccccc2)cc1	inconclusive: 54.9 µM [activator, partial curve, poor fit]
C[C@@H](O[C@H]1OCCN(Cc2n[nH]c(=O)[nH]2)[C@H]1c1ccc(F)cc1)c1cc(C(F)(F)F)cc(C(F)(F)F)c1	active: 16.9 µM
